The source of these data is US20220363781A1 (SICHUAN KELUN BIOTECH BIOPHARMACEUTICAL, published 2022).

Experiment [1] concerns the target T1, monkey TSLP-His (cynomolgus monkey, Macaca fascicularis) (cynomolgus monkey (Macaca fascicularis), UniProt A0A7N9CAT7 29-159).
T1 construct: Whole entry XP_005557555.1 is named; also called cTSLP
T1 sequence: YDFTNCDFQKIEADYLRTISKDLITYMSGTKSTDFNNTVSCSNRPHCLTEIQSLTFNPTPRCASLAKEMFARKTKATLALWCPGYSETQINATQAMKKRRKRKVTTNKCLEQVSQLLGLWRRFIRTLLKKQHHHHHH
The experiment can be described thus: ELISA, monkey TSLP-His coated, antibody titrated, anti-human Fc-HRP.

Experiment [2] addresses T2, human TSLP-His (human, UniProt Q969D9 29-159).
T2 construct: Whole entry NP_149024.1 is named; Expressed in E. coli or HEK293F; also called hTSLP; hTSLP-His
The experiment can be described thus: BLI (Fortebio), antibody on ProA sensor, human TSLP 1.5625-100 nM, 1:1 model. For orientation: BLI is a label-free optical method that tracks binding on a fibre tip over time.

Experiment [3] deals with T2, human TSLP-His. The experiment can be described thus: cell-based or functional assay.
Experiment [4] deals with T2, human TSLP-His. The experiment can be described thus: ELISA, human TSLP-His coated, antibody titrated, anti-human Fc-HRP. (In general: An ELISA detects its analyte on a solid surface through an enzyme-linked reagent.)
The target of experiment [5] is T2, human TSLP-His. The experiment is described as follows: cell-based or functional assay. The source holds these as a separate data set.
Experiment [6] has as its target T1, monkey TSLP-His (cynomolgus monkey, …). The experiment can be described thus: BLI (Fortebio), antibody on ProA sensor, monkey TSLP 1.5625-100 nM, 1:1 model.
Experiment [7] has as its target T2, human TSLP-His. The experiment can be described thus: BLI (Fortebio), antibody on ProA sensor, human TSLP titrated, 1:1 model.
Experiment [8] has as its target FcRn (biotin-labeled). The experiment is described as follows: BLI (Fortebio), biotin-FcRn on SA sensor, pH 6.0.
Experiment [9] has as its target T2, human TSLP-His. The experiment can be described thus: cell-based or functional assay. This is another data set of the same source.
Experiment [10] concerns the target FcRn (biotin-labeled). The experiment can be described thus: BLI (Fortebio), biotin-FcRn on SA sensor, antibody 1.5625-200 nM, pH 6.0, 1:1 model.
For experiment [11], the target named is T2, human TSLP-His. The experiment is described as follows: cell-based or functional assay. This is another data set of the same source.

Where two headings read alike, the source gives them in different places.

Sequence of FcRn (biotin-labeled) (P55899 24-297, chain 1 of 2): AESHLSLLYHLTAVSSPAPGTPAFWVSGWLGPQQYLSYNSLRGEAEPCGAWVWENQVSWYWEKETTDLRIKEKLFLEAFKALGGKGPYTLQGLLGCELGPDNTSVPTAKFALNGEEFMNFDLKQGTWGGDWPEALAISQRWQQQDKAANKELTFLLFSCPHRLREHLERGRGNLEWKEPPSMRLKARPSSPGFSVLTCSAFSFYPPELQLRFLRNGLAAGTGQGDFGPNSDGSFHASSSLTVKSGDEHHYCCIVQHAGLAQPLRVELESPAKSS
Sequence of FcRn (biotin-labeled) (P61769 21-119, chain 2 of 2, further chain): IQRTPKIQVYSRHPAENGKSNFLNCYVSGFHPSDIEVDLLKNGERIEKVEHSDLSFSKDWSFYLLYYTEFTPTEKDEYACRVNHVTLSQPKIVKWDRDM

B1: recombinant fully human antibody 43B1A8-hIgG (antibody)
heavy: QMQLVESGGGAVQPGRSLRLSCAASGFTFRSYDMHWVRQAPGKGLEWVAVIWYDGSNENYADSVKGRFTTSRDNSKNTLFLQMNSLRAEDTAVYYCARSPLWYGEPDDAFDIWGQGTLVTVSSASTKGPSVFPLAPSSKSTSGGTAALGCLVKDYFPEPVTVSWNSGALTSGVHTFPAVLQSSGLYSLSSVVTVPSSSLGTQTYICNVNHKPSNTKVDKKV[human IgG1 Fc with L234A L235A G237A (EU numbers) cut from this listing]
light: EIVMTQSPATLSVSPGERATLSCRASQSVSSNLAWYQQKPGQAPRLLISGASTRATGIPARFSGSGSGTDFTLTISSLRSEDFAVYYCQHYNNWPLTFGGGTKVEIKRTVAAPSVFIFPPSDEQLKSGTASVVCLLNNFYPREAKVQWKVDNALQSGNSQESVTEQDSKDSTYSLSSTLTLSKADYEKHKVYACEVTHQGLSSPVTKSFNRGEC
notes: also called 43BlA8-hIgG; 43B1A8-hIgGlt
What is called EC50 is the concentration giving half of the maximal effect. A word on the Kd: it is the constant that tells how readily two partners part at equilibrium. Take B1: the concentration for a half-maximal effect (EC50) in experiment [1] turned out to be 0.23 nM; with human TSLP-His [4], 0.8 nM. Moreover, the Kd is 0.581 nM with human TSLP-His [2] and 1.02 nM in [6]. Further, the “hTSLP EC50, inhibition of the proliferation of Ba/F3-hTSLPR-hIL7Rα cells” value (from here on “hTSLP EC50, inhibition”) with human TSLP-His [3] came out at 0.031 nM. Besides, in the experiment with human TSLP-His [5], the “EC50, inhibition of human TSLP-induced PBMC secretion of TARC” value was 0.44 nM.

B2: recombinant fully human antibody 43B1-H6L1 (antibody, human IgG4 S228P, kappa)
heavy: QMQLVESGGGAVQPGRSLRLSCAASGFTFRSYDMHWVRQAPGKGLEWVAVIWYDGSNENYADSVKGRFTTSRDNSKNTLFLQMNSLRAEDTAVYYCARSPLWYGEPDDAFDIWGQGTLVTVSSASTKGPSVFPLAPCSRSTSESTAALGCLVKDYFPEPVTVSWNSGALTSGVHTFPAVLQSSGLYSLSSVVTVPSSSLGTKTYTCNVDHKPSNTKVDKRV[human IgG4 Fc with S228P N434A (EU numbers) cut from this listing]
light: EIVMTQSPATLSVSPGERATLSCRASQSVSSNLAWYQQKPGQAPRLLISGASTRATGIPARFSGSGSGTDFTLTISSLRSEDFAVYYCQHYNNWPLTFGGGTKVEIKRTVAAPSVFIFPPSDEQLKSGTASVVCLLNNFYPREAKVQWKVDNALQSGNSQESVTEQDSKDSTYSLSSTLTLSKADYEKHKVYACEVTHQGLSSPVTKSFNRGEC
As for B2, the Kd with human TSLP-His [7] is 0.419 nM; with FcRn (biotin-labeled) [10], 4.23 nM. Moreover, in the experiment with FcRn (biotin-labeled) [8], the “fold affinity for FcRn against the control antibody” value was ~2 times that of the control antibody. Further, in the experiment with human TSLP-His [9], the “hTSLP EC50, inhibition” value was determined as 0.46 nM.

B3: recombinant fully human antibody 43B1-H2L2 (antibody, human IgG1, kappa)
heavy: QMQLVESGGGAVQPGGSLRLSCAASGFTFRSYDMHWVRQAPGKGLEWVAVIWYDGSNENYADSVKGRFTTSRDNSKNTLFLQMNSLRAEDTAVYYCARSPLWYGEPDDAFDIWGQGTLVTVSSASTKGPSVFPLAPSSKSTSGGTAALGCLVKDYFPEPVTVSWNSGALTSGVHTFPAVLQSSGLYSLSSVVTVPSSSLGTQTYICNVNHKPSNTKVDKKV[human IgG1 Fc with L234A L235A G237A N434A (EU numbers) cut from this listing]
light: EIVMTQSPATLSVSPGERATLSCRASQSVSSNLAWYQQKPGQAPRLLISGASTRATGIPARFSGSGSGTDFTLTISSLQSEDFAVYYCQHYNNWPLTFGGGTKVEIKRTVAAPSVFIFPPSDEQLKSGTASVVCLLNNFYPREAKVQWKVDNALQSGNSQESVTEQDSKDSTYSLSSTLTLSKADYEKHKVYACEVTHQGLSSPVTKSFNRGEC
Turning to B3, the Kd with human TSLP-His [7] was found to be 0.233 nM; in the experiment with FcRn (biotin-labeled) [10], 5.25 nM. Besides, the “EC50, inhibition of human TSLP-induced PBMC secretion of MDC” value with human TSLP-His [11] came out at 0.00784 nM. Further, the “fold affinity for FcRn against the control antibody” value with FcRn (biotin-labeled) [8] is ~2 times that of the control antibody. Moreover, the “hTSLP EC50, inhibition” value with human TSLP-His [9] is 0.64 nM.
